At least one read-out could not be matched to a standard name with certainty.
Test system: WI-38 cells
Details: for Screen 1: Screening, at 10 uM (viability assay by ATP measurement, normalized fold-change shown, >=2.5): 24 h, then 700 μM H2O2 3 h, normalized to DMSO; for Screen 2: Dose response, at 10 uM (viability assay by ATP measurement, normalized fold-change shown, >=1.5) / Screen 3: Dose response, at 20 uM (viability assay by ATP measurement, normalized fold-change shown): H2O2 stress; for Exp. 1, under H2O2 stress treatment, at 10 uM (fold change): Exp. 1, WI-38 cells; for Exp. 1, under H2O2 stress treatment, at 10 uM (fold change) / Exp. 2, under H2O2 stress treatment, at 10 uM (fold change): normalized ATP measurement (Table 12); for Exp. 2, under H2O2 stress treatment, at 10 uM (fold change): Exp. 2, WI-38 cells; for Experiment 1, WI-38 cells (under H2O2 stress treatment), at 10 uM (fold change) / Experiment 2, WI-38 cells (under H2O2 stress treatment), at 10 uM (fold change): 10 uM (run along with HDF cells); for Dose response retest, at 10 uM (fold change) / Dose response retest, at 20 uM (fold change) / Library Screening, at 10 uM (fold change): H2O2-resistance of WI-38 cells; for Dose response retest, at 10 uM (fold change) / Dose response retest, at 20 uM (fold change): cherry-picked retest; for H2O2 stress treatment (3 hrs), at 10 uM (fold change): WI-38 cells, H2O2 3 hrs, normalized ATP measurement

Structure (SMILES) | Screen 1: Screening, at 10 uM (viability assay by ATP measurement, normalized fold-change shown, >=2.5) [fold-change] | Screen 2: Dose response, at 10 uM (viability assay by ATP measurement, normalized fold-change shown, >=1.5) [fold-change] | Screen 3: Dose response, at 20 uM (viability assay by ATP measurement, normalized fold-change shown) [fold-change] | Exp. 1, under H2O2 stress treatment, at 10 uM (fold change) | Exp. 2, under H2O2 stress treatment, at 10 uM (fold change) | Experiment 1, WI-38 cells (under H2O2 stress treatment), at 10 uM (fold change) | Experiment 2, WI-38 cells (under H2O2 stress treatment), at 10 uM (fold change) | Dose response retest, at 10 uM (fold change) | Dose response retest, at 20 uM (fold change) | Library Screening, at 10 uM (fold change) | H2O2 stress treatment (3 hrs), at 10 uM (fold change)
O=C(Nc1cc(C(F)(F)F)ccc1Cl)c1ccc([N+](=O)[O-])o1 [Gr-1B] | 4.12 | 3.18 | 3.40 | 6.98 | 3.07 | 8.53 | 24.58 | 3.18 | 3.40 | 4.12 | 2.17
O=C(Nc1cccc(C(F)(F)F)c1)c1ccc([N+](=O)[O-])o1 [Gr-1E] | 17.87 | 11.83 | 6.59 | 52.76 | 18.85 | 8.22 | 28.54 | 11.83 | 6.59 | 17.87 | 4.14
Cc1ccc(NC(=O)c2ccc([N+](=O)[O-])o2)cc1C [Gr-1F] | 26.35 | 3.47 | 7.92 | 46.70 | 2.44 | 8.10 | 23.26 | 3.47 | 7.92 | 26.35 | 14.64
CNS(=O)(=O)c1cc(-c2nnc(O)c3ccccc23)ccc1C [Gr-2A] | 2.94 | 1.87 | 2.57 |  |  |  |  |  |  |  | 
Oc1nnc(Cc2ccncc2)c2ccccc12 [Gr-2B] | 3.15 | 2.18 | 3.00 |  |  |  |  |  |  |  | 
Oc1nnc(Cc2ccccc2)c2ccccc12 [Gr-2C] | 3.59 | 3.60 | 5.83 |  |  |  |  |  |  |  | 
CN1CCC=C(Cc2nnc(O)c3ccccc23)C1 [Gr-2D] | 3.81 | 5.66 | 8.11 |  |  |  |  |  |  |  | 
CC(COc1ccc2c(c1)OCO2)NC(=O)Cc1nnc(O)c2ccccc12 (stereo not drawn) [Gr-2E] | 4.74 | 5.33 | 8.81 |  |  |  |  |  |  |  | 
O=[N+]([O-])c1ccccc1S(=O)(=O)Nc1cccc2cccnc12 [Gr-3A] | 5.16 | 1.43 | 1.88 | 2.36 | 1.81 | 8.12 | 2.69 | 1.43 | 1.88 | 5.16 | 1.08
Cc1ccc(S(=O)(=O)Nc2cccc3cccnc23)cc1 [Gr-3B] | 20.47 | 2.18 | 2.68 | 4.78 | 3.62 | 7.78 | 7.53 | 2.18 | 2.68 | 20.47 | 1.08
Nc1ccccc1S(=O)(=O)Nc1cccc2cccnc12 [Gr-3C] | 24.00 | 5.93 | 1.74 | 19.06 | 1.79 | 8.22 | 11.18 | 5.93 | 1.74 | 24.00 | 1.11
Cc1ccc(C(=O)Nc2ccc3ccc4cccnc4c3n2)cc1 [Gr-3D] | 36.08 | 38.43 | 29.38 |  |  |  |  |  |  |  | 
O=C(/C(=C/c1ccc(Cl)cc1)c1nc2ccccc2[nH]1)c1ccccc1 [Gr-4D] | 14.99 | 3.48 | 6.13 | 4.78 | 3.62 | 2.58 | 5.09 | 3.48 | 6.13 | 14.99 | 1.21
CCc1ccc(Oc2nc3ccccn3c(=O)c2/C=C(\C#N)C(=O)NC2CCCCC2)cc1 [Gr-5A] | 3.52 | 1.27 | 1.40 | 2.53 | 2.22 | 1.69 | 16.36 | 1.27 | 1.40 | 3.52 | 1.28
CCc1ccc(Oc2nc3ccccn3c(=O)c2/C=C(\C#N)C(=O)NCc2ccco2)cc1 [Gr-5B] | 3.62 | 1.60 | 1.90 | 1.63 | 2.00 | 1.70 | 7.69 | 1.60 | 1.90 | 3.62 | 1.43
Cc1ccc(S(=O)(=O)/C(C#N)=C/c2c(Oc3ccc(Cl)c(C)c3)nc3ccccn3c2=O)cc1 [Gr-5C] | 4.94 | 1.72 | 2.13 |  |  |  |  |  |  |  | 
